Laboratory results published in the supplement of paper PMC10126150.
Sequences with one replicate were seen in a single cluster, so their values are uncertain.

System: ATP
Assay: switch fluorescence ratio, 500 uM ATP over buffer (Cy3 cluster intensity, sum of 5 cycles each) (fold (ratio)); higher = stronger signal-on switching upon ATP binding; sequences stand for … in TCGTCGGCAGCGTCAGATGTGTATAAGAGACAGTTTTTTTTTTTTTTTTTTTTTTTTT…TC
Settings: aptamer strand: ATP DNA aptamer (quencher-CACCTGGGGGAGTATTGCGGAGGAAGG + anchor), 100 nM annealed; ATP concentration: 500 uM; one replicate
Procedure, shortened: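 Imaging in selection buffer was followed by imaging after 15 min with 500 uM ATP at 22 °C, for Cy3-labelled switching-strand clusters annealed to 100 nM quencher-labelled ATP aptamer on a modified Illumina MiSeq flow-cell. Five of these buffer/ATP cycles ran, separated by NaOH stripping and re-annealing. The fluorescence ratio per cluster is summed target-cycle over summed buffer-cycle Cy3 intensity, averaged per switch-domain sequence; clusters outside 100-1000 RFU were removed.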
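Note: ATP exposure 15 min at 22 °C before imaging.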

Sequence	switch fluorescence ratio
CTAAACAATG	1.04
CTAAACGAGG	0.993
CTAAAGGCAT	1.02
CTAAAGGTAG	0.955
CTAAATAGTT	0.97
CTAACAGGCT	1.1
CTAACAGTTC	1.03
CTAACCCGTT	1.02
CTAACCCTGT	1.03
CTAACCTGGA	1.31
CTAACGACGA	1.26
CTAACGTCAT	1.1
CTAACTATCG	1.02
CTAAGAAAG	0.989
CTAAGAAAGA	1.04
CTAAGCATCG	1.04
CTAAGCGTAG	1.01
CTAAGGCTAT	1
CTAAGGGAAA	1.1
CTAATCCA	1
CTAATCCCTC	1.04
CTAATCCTAT	0.986
CTAATCGTTT	1.02
CTAATGTGGA	1.01
CTAATTTATA	1
CTAATTTGCG	0.996

Sequence	switch fluorescence ratio
CTACAAACGA	1.35
CTACAGTGAC	1.19
CTACATCAAT	1.17
CTACATGCAC	1.26
CTACATGCTA	1.02
CTACATTTAG	1.03
CTACATTTTG	1.03
CTACCCTGTG	1.24
CTACCGGT	1.01
CTACCTCATG	1.11
CTACCTCGTG	1.04
CTACCTCTAA	1.04
CTACCTGCTT	0.987
CTACGAAGAT	1.06
CTACGCGTCT	1.07
CTACGCTAGG	2.41
CTACGGAAGA	2.25
CTACTCGCGC	1.35
CTACTCGGGG	1.03
CTACTCTAGC	1.15
CTACTGCGAC	1.47
CTACTTAAGC	1.04
CTACTTTGTG	1.01
CTAGAACGTT	1.01
CTAGAAGTCT	1.02
CTAGACCTGT	0.978

Sequence	switch fluorescence ratio
CTAGACGCTG	1.02
CTAGACGGAT	1.04
CTAGAGTGAC	1.01
CTAGCAAGGT	1.35
CTAGCGCGCC	0.987
CTAGCGTCGT	1
CTAGGACGCC	1.02
CTAGGATAG	1.05
CTAGGCATGA	1.12
CTAGGGCGAG	0.979
CTAGGGGAAG	0.996
CTAGGGGCT	0.99
CTAGGTTCCG	1.05
CTAGTACCGT	1.01
CTAGTAGAT	1.05
CTAGTATACA	0.997
CTAGTCCGCT	1.25
CTAGTGGGTA	0.956
CTATACTCTT	1.05
CTATAGGCTT	0.995
CTATAGTAA	1.1
CTATATTATA	1
CTATCAAAGC	1.03
CTATCAACCA	0.998
CTATCATCGC	1.04
CTATCCGACA	1.26

Sequence	switch fluorescence ratio
CTATCTAATA	1.02
CTATGAGCCG	0.86
CTATGCA	1.15
CTATGCAGAC	4.47
CTATGCTGCA	1.03
CTATGGAACT	1.06
CTATGGTACC	0.992
CTATGTTCCA	1.02
CTATTATCGC	1.06
CTATTATTGA	0.993
CTATTCAATT	0.984
CTATTCGGCG	0.991
CTATTGCTTG	1.01
CTATTTACCG	1.02
CTATTTTCGT	0.987
CTCAACCTCG	0.986
CTCAAGGGA	0.974
CTCAATTGCT	1.02
CTCACATGTG	1.04
CTCACATTTG	1
CTCACGAAAG	1.05
CTCACTTAG	1.08
CTCACTTTGC	1.08
CTCAGATATC	1.05
CTCAGGAAGC	1.47
CTCAGGACTT	1.04

Sequence	switch fluorescence ratio
CTCATACTTG	0.991
CTCATAGGTC	1
CTCATCATCG	0.982
CTCATGACAT	1.02
CTCATGGCGG	0.997
CTCATGGTGC	1.52
CTCATTAGAC	1.1
CTCATTGCAT	1.17
CTCATTGCG	1
CTCCATACGA	2.99
CTCCATTTGC	2.03
CTCCCCCAGT	4.1
CTCCCGGGG	1.15
CTCCCTATAT	3.7
CTCCGAAATT	5.25
CTCCGAGGTT	1.64
CTCCTAGCTG	1.21
CTCCTCATTG	1.42
CTCCTTAGCG	0.99
CTCCTTTGTC	1.03
CTCCTTTTCG	1.04
CTCGAATAGT	0.984
CTCGAATTGC	1.51
CTCGACTGAG	0.979
CTCGAGCGGG	1.02
CTCGATGTCT	0.997

Sequence	switch fluorescence ratio
CTCGATTATT	0.995
CTCGCAGCA	1.92
CTCGCATCGG	1.21
CTCGCTTTGT	1.01
CTCGGGAAGA	1.04
CTCGGGAGCG	1.01
CTCGGGGAAC	1.09
CTCGGGGAGC	1
CTCGGGTGCC	1.03
CTCGGTACCA	0.998
CTCGTAAGGC	2.05
CTCGTAGGGC	0.941
CTCGTCAGTC	1.09
CTCGTCGACA	0.985
CTCGTGAAGG	1
CTCGTGGGTT	0.96
CTCTACTAGC	1.08
CTCTACTTTA	1.06
CTCTACTTTG	0.974
CTCTAGCCAA	2.46
CTCTAGTATA	0.954
CTCTATATTC	1.07
CTCTATGCTC	1.17
CTCTATGTCA	0.995
CTCTCACGCG	0.939
CTCTCCCTGT	1.37

Sequence	switch fluorescence ratio
CTCTCGGTAC	3.82
CTCTCTGAGC	1.13
CTCTGACTGC	1.48
CTCTGGGGAC	1.65
CTCTTGACTT	1.01
CTCTTGCGCA	1.11
CTCTTGCTTA	1.04
CTCTTGGGCA	1.01
CTCTTTATTA	1
CTGAAATATC	2.43
CTGAAATGGG	1
CTGAAGACT	0.977
CTGAAGGGAG	1.02
CTGAAGGGG	1
CTGAAGGTTC	1.1
CTGAAGTTAA	1.14
CTGAATAAGG	1.02
CTGAATATCA	0.991
CTGAATATGG	0.984
CTGAATTT	1.03
CTGAATTTGC	0.996
CTGACGCGTG	1
CTGACTCCCG	1.4
CTGAGACCTG	1.01
CTGAGTACTG	1.12
CTGAGTTATG	0.958

Sequence	switch fluorescence ratio
CTGAGTTTAG	1
CTGATAAA	0.967
CTGATAGCCA	1.09
CTGATATTAG	0.998
CTGATATTT	0.98
CTGATGCGGA	1.08
CTGATGGCAG	1.11
CTGATGGTGT	1.07
CTGATGTAAA	1.03
CTGATTACTG	1.01
CTGATTAGTG	0.96
CTGCAAGGTA	1.08
CTGCAGCTTG	1.05
CTGCAGTGGA	1.03
CTGCATCAAC	2.15
CTGCATGGAC	3.19
CTGCCGTAAT	1.73
CTGCCTCAGT	1.11
CTGCCTGCGT	1.11
